Assay results: the supplement of paper PMC4604168 (melanoma cell lines)
The other results are listed elsewhere or left out. Most values come without repeats; read them as rough.

What follows are molecules tested on COLO792 (assay: cell count relative to DMSO control; melanoma cells; higher = more viable cells). Conditions: library dose: low library concentration; 72 h.
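Further: cell number obtained by counting DAPI-stained nuclei in high-throughput microscope images with image analysis software, screen run in 1,536-well plates.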

Compound	cell count
NC(=O)c1ccc(N(C(N)=O)c2c(F)cccc2F)nc1-c1ccc(F)cc1F + O=C(O)c1ccc(-c2c[nH]c3ncc(-c4ccccc4)cc23)cc1C1CCCC1 [GSK650394] (first compound 0.4 µM, partner dose 0.16 µM)	94.2%
CCCCCCCCc1ccc(CCC(N)(CO)CO)cc1 [fingolimod] + COc1cc(Nc2ncc(F)c(Nc3ccc4c(n3)NC(=O)C(C)(C)O4)n2)cc(OC)c1OC [Tamatinib] (first compound 2 µM, partner dose 0.4 µM)	50.5%
CC(C)(C)c1cnc(CSc2cnc(NC(=O)C3CCNCC3)s2)o1 + O=C(Nc1cccc(Cl)c1)Nc1ncc(CCNc2ncnc3ccsc23)s1 [SNS314] (first compound 0.01 µM, partner dose 0.0008 µM)	93.9%
Cc1ccc(NC(=O)c2cccc(N(C)C)c2)cc1NC(=O)c1ccc(O)cc1 + COc1cc2c(Oc3ccc4[nH]c(C)cc4c3F)ncnc2cc1OCCCN1CCCC1 [cediranib] (first compound 2 µM, partner dose 0.4 µM)	115%
NC(=O)c1ccc(N(C(N)=O)c2c(F)cccc2F)nc1-c1ccc(F)cc1F + C[C@@H]1CCN(C(=O)CC#N)C[C@@H]1N(C)c1ncnc2[nH]ccc12 [CP690550] (first compound 0.4 µM, partner dose 1 µM)	94.8%
NC(=O)c1ccc(N(C(N)=O)c2c(F)cccc2F)nc1-c1ccc(F)cc1F + CC(C)(C)c1cnc(CSc2cnc(NC(=O)C3CCNCC3)s2)o1 [SNS-032] (first compound 0.4 µM, partner dose 0.01 µM)	86.1%
CCCCCCCCc1ccc(CCC(N)(CO)CO)cc1 [fingolimod] + CC1(C)NC(=O)N(c2ccc([N+](=O)[O-])c(C(F)(F)F)c2)C1=O [nilutamide] (first compound 2 µM, partner dose 1 µM)	103%
Cc1ccc(NC(=O)c2cccc(N(C)C)c2)cc1NC(=O)c1ccc(O)cc1 + CO[C@@H]1[C@H](N(C)C(=O)c2ccccc2)C[C@H]2O[C@]1(C)n1c3ccccc3c3c4c(c5c6ccccc6n2c5c31)C(=O)NC4 [Midostaurin] (first compound 2 µM, partner dose 0.08 µM)	114%
CCCCCCCCc1ccc(CCC(N)(CO)CO)cc1 [fingolimod] + Cc1cc(N2CCOCC2)cc2[nH]c(-c3c(NC[C@@H](O)c4cccc(Cl)c4)cc[nH]c3=O)nc12 [BMS536924] (first compound 2 µM, partner dose 0.2 µM)	94.1%
CCCCCCCCc1ccc(CCC(N)(CO)CO)cc1 [fingolimod] + O=C(O)c1ccc(-c2c[nH]c3ncc(-c4ccccc4)cc23)cc1C1CCCC1 [GSK650394] (first compound 2 µM, partner dose 0.16 µM)	94.1%
Cc1ccc(NC(=O)c2cccc(N(C)C)c2)cc1NC(=O)c1ccc(O)cc1 + OCCn1cc(-c2cnc3nnn(Cc4ccc5ncccc5c4)c3n2)cn1 [PF04217903] (first compound 2 µM, partner dose 1 µM)	91.7%
NC(=O)c1ccc(N(C(N)=O)c2c(F)cccc2F)nc1-c1ccc(F)cc1F + C=CCn1c(=O)c2cnc(Nc3ccc(N4CCN(C)CC4)cc3)nc2n1-c1cccc(C(C)(C)O)n1 [MK1775] (first compound 0.4 µM, partner dose 0.02 µM)	89.5%
CC(C)(C)c1cnc(CSc2cnc(NC(=O)C3CCNCC3)s2)o1 + CN(NC(=O)CC(=O)NN(C)C(=S)c1ccccc1)C(=S)c1ccccc1 [STA4783] (first compound 0.01 µM, partner dose 0.006 µM)	69.9%
Cc1ccc(NC(=O)c2cccc(N(C)C)c2)cc1NC(=O)c1ccc(O)cc1 + Cn1cncc1[C@@](N)(c1ccc(Cl)cc1)c1ccc2c(c1)c(-c1cccc(Cl)c1)cc(=O)n2C [tipifarnib] (first compound 2 µM, partner dose 0.01 µM)	97.3%
Cc1ccc(NC(=O)c2cccc(N(C)C)c2)cc1NC(=O)c1ccc(O)cc1 + NCC(=O)Nc1ccc(-n2nc(C(F)(F)F)cc2-c2ccc3c(ccc4ccccc43)c2)cc1 [OSU03012] (first compound 2 µM, partner dose 1 µM)	88%
